Measured values published in the supplement of paper PMC11417369.
The list shows a part of the results.

test system: PfHDP1 homeodomain (GST-tagged); assay: gcPBM binding intensity (ln(normalized median fluorescence intensity)); higher = stronger DNA binding
How it was run: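 An Agilent 4 × 180k array carrying primer-extended double-stranded 36-bp intergenic genomic probes and negative controls received GST-tagged P. falciparum DNA-binding domains expressed in E. coli, about 25 μg on average, for 1 h. The binding buffer contained 1× PBS, 1% milk, 0.2 mg/ml BSA, 0.5% salmon testes DNA and 0.03% Triton X-100. Binding intensity is the top Masliner-normalised natural-log median intensity across replicate spots of either probe orientation, read after Alexa488 anti-GST antibody staining and a 488 nm scan.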

| Sequence | gcPBM binding intensity (ln) |
| --- | --- |
| TTAAAAATAAATTCATGTACATAATATATATATATA [XGTACX_site7908] | 8.86 |
| TATATACAACGTTAAGCACACACAAAAAAAATTTAA [CACACA_site9013] | 6.86 |
| AAAACATAAATACATACACACATAATATAGATTAAT [CACACA_site6205] | 6.63 |
| TTGCATTTATTATACACACACAAAAAAATATTTATA [CACACA_site6252] | 7.08 |
| ATTTAATTTTTTTTTTTTTTTTTTCAATCCCCTTTT [CACACA_negctrl_site1013] | 6.11 |
| TTTTAAACAAAAATTTGTACACAATAATTAAATATA [XGTACX_site6755] | 6.67 |
| CATTTTAAAGAAAATACACACAAAAATAAATATATA [CACACA_site1395] | 6.6 |
| TTTTTTTATTAAAAATGTACAAAAATGAAAAAATAA [XGTACX_site8279] | 6.62 |
| CATATAATTTTATGGGTGCATTTTTTTGTAAGACCA | 8.63 |
| TAAAAAAATATATATACATGCATAGAAAAAAAAAAA [TGCATGCA_site552] | 6.5 |
| TAATAATAAATTGGTTGTACAACCTTATACAGAATA [XGTACX_site2592] | 6.58 |
| ACACAAAAAATAAAAATATATATATATTATATATAT [CACACA_negctrl_site1489] | 7.32 |
| TTTATACACAAAAAATGTACATATATATAATGAATT [XGTACX_site1195] | 6.78 |
| CGTTTATATAGTGATGCATGCATTGTTAACATGGTT [TGCATGCA_site418] | 7.1 |
| CGCACAAAAATATACACACACACATATATATTTATT [CACACA_site3645] | 7.33 |
| TGTATGTCTTTATTTTGTACACAATATAAAAAATTA [XGTACX_site5441] | 6.69 |
| TATATTTACGTATGTCGAACGTTATTTTGAACAACC [CACACA_negctrl_site1261] | 6.44 |
| TTAAAAAAAAAAAGGTGTACTATAATTTAATATCAC [XGTACX_site6316] | 6.2 |
| TTTAATTTTTTTTAAACACACACATTACATTCAAAA [CACACA_site7926] | 6.53 |
| TTATATTATGCTTGAATGCACTTTGAAGCACAATCT [GTGCAC_site9789] | 8.09 |
| AATATATAATTTTATAGTACATAATAAAAGAACAGG [XGTACX_site724] | 6.85 |
| TATTCAACATAATATGCACACAAAAATTATGGAACG [CACACA_site8660] | 9.99 |
| ATCACATAAAATATGAATATATATTTTATATATATA [CACACA_negctrl_site340] | 7 |

| Sequence | gcPBM binding intensity (ln) |
| --- | --- |
| TATTTTGTTCTTTCCACACACAAATACAGATATTGT [CACACA_site6097] | 7.03 |
| TCTTATCCATATATTACACACTATAAATAGAAATTA [CACACA_site6274] | 6.74 |
| ATTTGTATATATTAATGTACACACATGCGTATGTTC [XGTACX_site7579] | 6.85 |
| TGGGTAAACAGACACACACACATATAGATTTATATA [CACACA_site7026] | 6.7 |
| CTTCCAATAAAAAATGCACACATTGAAAATATTGAA [CACACA_site2688] | 8.88 |
| AAATTATATGAACATTGTACTTTATATATGTAAGAA [XGTACX_site1611] | 6.62 |
| ACACACATATATACATGTACATATATATATATATAT [XGTACX_site451] | 9.28 |
| TTTTTTTTTTTTTTTATAGTACATTACCAAAAAAAA [CACACA_negctrl_site1197] | 6.48 |
| TTAAAATAAAGAAAATGTACATAAATTAAAATAAAG [XGTACX_site2281] | 6.73 |
| ATTTATTGACTATTTACACACATATTTATTATAATA [CACACA_site1624] | 7.16 |
| TATAAATATAAATATACACACATATATTTATTTATA [CACACA_site6890] | 6.39 |
| AACAGTAACATTGAATGTACTTAATTTTAAGAAAAT [XGTACX_site2971] | 6.21 |
| ACACATAATATGTGTAGTACTTTTTCTTTAACATTA [XGTACX_site1436] | 6.3 |
| ATATATATATATATATGTACTAAGAATTCTTTAAAA [XGTACX_site8476] | 9.48 |
| ATTTATTTATTTATATGTACATATTTAAAGAGTTCA [XGTACX_site7631] | 6.48 |
| TATATTTTGTTCTGTTGTACTAAAAAAATCTTTATA [XGTACX_site8372] | 6.32 |
| TTACTTTTAACAAATGTGCGCAGTTATCACACAGAC | 7.23 |
| ACAAAACAAAAAAACTCACACATATACGGCATGTCA [CACACA_site5608] | 6.61 |
| ATACATATTTTACATTCACACAACAAATTTATATTT [CACACA_site4700] | 7.05 |
| AGGAACAAAATATACTGTACTTTATTATTTTCAAAA [XGTACX_site4421] | 6.24 |
| AACAGACAGAAACACACACACATATATATATATATA [CACACA_site3394] | 9.31 |
| TGTAGTCTGGAGAAAAGTACATAGTATCTGGTAACC [XGTACX_site2025] | 6.29 |
| TAATAAAATATGTACACACATACACCCATATATATA [CACACA_site1220] | 6.7 |

| Sequence | gcPBM binding intensity (ln) |
| --- | --- |
| ATTTTCCAAAATAATTGTACAGGAAAGAAATAATTA [XGTACX_site7424] | 6.54 |
| ATATATTTTAATTGATGTACTTTTTTATGTTAATGA [XGTACX_site4316] | 6.32 |
| ATTATACATATATAAGTGCAATAATGTTTTTTCCTT | 8.87 |
| TATACATATGAAAATACACACATACATACATATATA [CACACA_site8484] | 6.61 |
| AAGGTATATATAACTACACACTTATATATAATCTAA [CACACA_site92] | 6.23 |
| GTAAAAATACAAAAGGTGCTCAAACAATATAATACA | 7.08 |
| TACATACCTATATACACATGCATATTTACATATATT [TGCATGCA_site206] | 7.59 |
| TACATACAGATATATACACACATATATAATATATAT [CACACA_site4376] | 6.84 |
| AAAATTAAATTATAAGCACACACATATATATATATA [CACACA_site9105] | 9.32 |
| TATATAATATATATGACACACATATTTATATAAATA [CACACA_site4054] | 6.28 |
| GAATATTAAACAAACACACACACATATATTTATATA [CACACA_site7563] | 6.78 |
| AATGGATTGATAAGTGGTACACACATATATATTATA [XGTACX_site6086] | 6.47 |
| CTTTAGTTTTTAATGTGTACTGAATTTGAATAGTAG [XGTACX_site7920] | 6.26 |
| CGTATTATTTTATAAACACACAAGGGGGCATGTATA [CACACA_site6489] | 7.82 |
| TTGATATGTACAGGCACACATAAATTTCACAAATAT [CACACA_site3999] | 6.49 |
| CATAAATGTATATAAACATGCAAGGACAGACTTTTA [TGCATGCA_site900] | 6.32 |
| ATATAATTAAAAACATGTACATATATATATATATAT [XGTACX_site2882] | 9.26 |
| AATAAATAAAAAAAAAAAAAAAAAAAAAAAAAAAAA [XGTACX_negctrl_site343] | 5.99 |
| TTTTTTTTTTTTGTAATACACACCACTATATGTTAT [CACACA_site1844] | 6.57 |
| TTCTGTTGGAATATATGTACATAATAAAAAAAAATA [XGTACX_site1741] | 6.74 |
| TATGGCAAAACATTCACACATATTTATATATGTGTA [CACACA_site5588] | 6.22 |
| AGTTTTATAAAAATATGTACTTATATACACATGTAT [XGTACX_site4022] | 6.65 |
| TGTAGTCTGGAGAAAAGTACACAGTATCTGGTAACA [XGTACX_site2010] | 6.07 |

| Sequence | gcPBM binding intensity (ln) |
| --- | --- |
| TATTCTGGTGTAAATGCACACAGAAGAAGAAAAAAA [CACACA_site9225] | 8.49 |
| AAGGACACCTTCAAAACACACATACAAATAAATAGA [CACACA_site5771] | 6.86 |
| CATTTAGAATAAGGCACACATAAAGAACACTTTCCA [CACACA_site130] | 6.3 |
| TTATCTTAATTGTGATTATAAAGATATTCTTTCTAT [GTGCAC_negctrl_site410] | 5.95 |
| CAACCTCATAATATTTAACACACAAAATTATATGTA [CACACA_site8496] | 6.23 |
| TAAGTCGTTATAAGCACACACATAAATAAAAATAAA [CACACA_site1574] | 6.7 |
| TCAATTTTTTAATGTTGTACTTTGTAAAAAAAAATA [XGTACX_site8481] | 6.2 |
| ATATATTTATATAGGTGTACATATTTTGCTATTCAA [XGTACX_site5199] | 6.38 |
| AAGGGTTATAAAAATTGTACTTTTTTTATTTTTTTT [XGTACX_site1313] | 6.48 |
| ATACCAAATGAATAATGTACATACGAACATACATAT [XGTACX_site1301] | 6.51 |
| ATATTTTTAACCAAGGACACAATTCTTGTATTGTTA [CACACA_negctrl_site1326] | 6.21 |
| AAAAGATTAAGTAGAATAATGTTCTTTCCCAACATA [GTGCAC_negctrl_site223] | 5.77 |
| GTACATTGTAAGGATGGAAAAGCTAAACATTATAAT [XGTACX_negctrl_site339] | 6.69 |
| CCTGAACACATACATACACACACACTAATAAAAAAA [CACACA_site8023] | 7.01 |
| GCCATTAATTTATACACACACATTATGATTTTTTAT [CACACA_site754] | 7.37 |
| AAAATGTGCCCACGCGTACACACAAAAAAAGAAAAA [CACACA_site2004] | 6.13 |
| TACAAACTATGATGCACACATATATATATGTATACA [CACACA_site1226] | 9.43 |
| ATGCATATGTTTATTGCACACACCAAAAAGAAAACA [CACACA_site403] | 9.25 |
| AATAATTAAAATTATCTACACACCTTTATAAATATA [CACACA_site9300] | 6.26 |
| AATTTAAACAAGGATCCACACACCCCAAAAAAAAAA [CACACA_site8125] | 7.06 |
